# This is one part of the list. The energies were worked out here from pooled read counts, against the library average; single values are noisy.
# Target: T1, Pho4 (S. cerevisiae) (UniProt P07270)
# T1 sequence: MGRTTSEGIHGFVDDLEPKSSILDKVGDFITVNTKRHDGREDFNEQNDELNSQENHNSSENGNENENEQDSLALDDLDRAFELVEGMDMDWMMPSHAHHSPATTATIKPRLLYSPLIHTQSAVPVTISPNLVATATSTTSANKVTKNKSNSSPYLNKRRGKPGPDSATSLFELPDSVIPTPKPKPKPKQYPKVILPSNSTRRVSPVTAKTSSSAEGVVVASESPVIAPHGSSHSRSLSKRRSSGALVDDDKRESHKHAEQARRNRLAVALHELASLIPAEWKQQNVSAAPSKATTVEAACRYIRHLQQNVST
# Test: relative binding free energy (BET-seq); higher = weaker binding
# Settings: reference: library average
row,Sequence,relative binding free energy [kcal/mol]
1,ACTGTCACGTGTTGCG,0.16
2,GTGTTCACGTGTAGGG,0.26
3,CGATACACGTGTGGGG,0.06
4,CCAGGCACGTGCGTGG,-0.1
5,AAGTTCACGTGGTATG,0.1
6,ATAAACACGTGGTTAT,-0.03
7,AAGATCACGTGGAGTG,0.27
8,TGTCGCACGTGGCAGG,-0.12
9,TGGCGCACGTGAGGAG,0.12
10,GTAGGCACGTGATTAG,-0.03
11,GATGGCACGTGGAGTC,0.11
12,GGGGGCACGTGTCCGG,-0.08
13,GTTTTCACGTGGCTCT,0.21
14,CATGTCACGTGATGTT,0.24
15,TGAATCACGTGTGTCA,0.3
16,TGCGCCACGTGGCGGT,-0.24
17,AGGTGCACGTGGCGCT,-0.28
18,TAGAGCACGTGGGGCC,-0.19
19,TTCTTCACGTGTAGCT,0.33
20,AGTGTCACGTGGTATG,-0.07
21,AGGCTCACGTGTCTTG,0.29
22,ACTGGCACGTGGGGAG,-0.16
23,TGTTGCACGTGTGTAA,-0.03

row,Sequence,relative binding free energy [kcal/mol]
1,TATGTCACGTGGTAGA,0.05
2,AGTGGCACGTGGTTCT,-0.1
3,TTATGCACGTGTACCT,0.1
4,TTGTTCACGTGGTTAT,0.33
5,TTGACCACGTGGTGTA,-0.17
6,TGTACCACGTGGTGCG,-0.22
7,ACGAGCACGTGTGGTA,-0.07
8,GGGGTCACGTGATTAC,0.34
9,TGATGCACGTGAATTT,0.24
10,TAATGCACGTGATCGG,0.01
11,TGGTGCACGTGGATGT,0.05
12,ATGAACACGTGCTGGG,-0.04
13,TTTTTCACGTGTAGAA,0.32
14,GTGTGCACGTGAACAG,0.22
15,GTTAACACGTGGTTGA,-0.15
16,TATTTCACGTGTCTTA,0.24
17,TGGTCCACGTGTATAG,0.07
18,TGTGCCACGTGTAAAG,0.03
19,AGGATCACGTGTATAG,0.11
20,TGTGTCACGTGCATTG,0.05
21,TGAAGCACGTGCGGGC,-0.07
22,AGGAGCACGTGGGTCG,-0.06
23,GGGTTCACGTGCAGTA,0.19

row,Sequence,relative binding free energy [kcal/mol]
1,CATTGCACGTGTGGCT,-0.04
2,GTCTTCACGTGCGCGG,0.41
3,TGGTACACGTGATAAG,0.12
4,ATTGTCACGTGTGAAC,0.3
5,GTTTACACGTGATTGG,0.36
6,TGGACCACGTGTTGAG,0.06
7,GGTGGCACGTGGCGAG,-0.17
8,GAGGACACGTGCGGTA,0.09
9,TGATGCACGTGATAGC,0.08
10,GGGGACACGTGTAGTT,0.28
11,GTCTTCACGTGCTGTT,0.24
12,AATTACACGTGTGGTG,0.05
13,TTCTTCACGTGATGGG,0.38
14,CGTGTCACGTGATTTG,0.28
15,CGGTTCACGTGTGTTG,0.27
16,CTGTGCACGTGAGCGG,0.13
17,CGGAGCACGTGTATGG,-0.2
18,TACATCACGTGGGCGT,0.08
19,TCTGTCACGTGGGTCG,0.05
20,GTCTTCACGTGGGGGG,0.2
21,GGGGTCACGTGGGACC,0.12
22,GCTGGCACGTGAGTAG,0.17
23,ATCCGCACGTGGGGTT,-0.21

row,Sequence,relative binding free energy [kcal/mol]
1,ATGAGCACGTGTTCTT,0.07
2,CTAATCACGTGGTGAG,0.17
3,ATTAACACGTGTTGTA,-0.09
4,GTGGGCACGTGTCGTA,-0.08
5,TAGTGCACGTGAGGAG,0.2
6,TAAAACACGTGGGTGG,-0.21
7,CGGGGCACGTGATCGT,-0.13
8,TGCTACACGTGTGGGG,0.07
9,TGCGTCACGTGGAGCG,0.18
10,GTTGACACGTGGCTGA,0.04
11,GAGGTCACGTGATTTA,0.19
12,AGAAGCACGTGGGGAA,-0.29
13,GTCTTCACGTGGTTTA,0.29
14,AGTGCCACGTGTATGG,-0.03
15,AATTTCACGTGTTCAT,0.22
16,GGTTACACGTGTTCAT,0.18
17,GTTATCACGTGAAGCG,0.43
18,ATTTTCACGTGCATAG,0.23
19,TAATTCACGTGAGTCT,0.27
20,TTGTTCACGTGGCTGA,0.32
21,TACTGCACGTGATGGG,0.02
22,TAGTTCACGTGTGGAA,0.17
23,CTTGTCACGTGTGGTA,0.13

row,Sequence,relative binding free energy [kcal/mol]
1,CTGTTCACGTGTTGCA,0.33
2,CGTGGCACGTGGGCCT,-0.29
3,TGGGACACGTGTAGGT,0.12
4,GGCGCCACGTGGTGGG,-0.13
5,TGACACACGTGGTCGT,0.06
6,TGGCTCACGTGTGGAA,0.28
7,GAGTGCACGTGAGGTA,0.21
8,CAGGTCACGTGAGTTA,0.26
9,GTTAACACGTGAGTTT,0.33
10,CTTTACACGTGGGGCG,0.02
11,ATCTTCACGTGAAGGT,0.53
12,AACTGCACGTGGAGGG,0.07
13,AGTGACACGTGTTCAT,0.13
14,CGGATCACGTGGGGCT,0.07
15,TGGTACACGTGTAGGG,0.15
16,TGAGGCACGTGGGATG,-0.14
17,TTTAGCACGTGATGCT,0.07
18,GGCTTCACGTGGGAGA,0.17
19,GTGCGCACGTGGCGGT,-0.17
20,AGCCGCACGTGCGGGG,-0.15
21,TTGGCCACGTGGGGGC,-0.18
22,ATGGTCACGTGGATCA,0.15
23,CGCGGCACGTGCAGGG,-0.09
